{"source": "patent US8828401B2", "about": "“Cytotoxic peptides and antibody drug conjugates thereof” (Pfizer Inc., priority 2011, dated 2014)", "molecules": {"B1": {"name": "hu28-vc0101: humanized anti-Notch antibody hu28 conjugated to mcValCitPABC-#54 (conjugate)", "heavy": "EVQLVESGGGLVQPGGSLRLSCAASGFTFRDYGMTWVRQAPGKGLEWVAYISSGSNYIYYAEAVKGRFTISRDNAKNSLYLQMNSLRAEDTAVYYCARRGPFVLDAWGQGTLVTVSS[human IgG1 constant region left out]", "light": "DIQMTQSPSSLSASVGDRVTITCKASQSINRYLHWYQQKPGKAPKLLIYNANGLQTGVPSRFSGSGSGTDFTLTISSLQPEDFATYYCLQHNTWPDTFGGGTKVEIKRTVAAPSVFIFPPSDEQLKSGTASVVCLLNNFYPREAKVQWKVDNALQSGNSQESVTEQDSKDSTYSLSSTLTLSKADYEKHKVYACEVTHQGLSSPVTKSFNRGEC"}}, "key": {"HCC2429 lung xenografts": {"test_system": "HCC2429 lung xenografts", "assay": "HCC2429 lung xenografts with anti-Notch ADCs", "type": "in vivo, nude (Nu/Nu) female mice", "method": "(§1) Humanized anti-Notch antibodies, hu28 and hu75, and rat-human chimeric anti-Notch antibodies, ch28 and ch75, were conjugated to various linker-payload combinations and tested in 37622A1 non-small cell lung cancer (NSCLC), HCC2429 lung cancer, MDA-MB-468 breast cancer and N87 gastric cancer xenograft models. For each model described below the first dose was given on Day 0. The tumors were measured at least once a week and their volume was calculated with the formula: tumor volume (mm^3)=0.5×(tumor width^2)(tumor length). The mean tumor volumes (±S.E.M.) for each treatment group were calculated having a maximum of 10 animals and a minimum of 6 animals to be included.\nSimilar in vivo experiments were performed with the HCC2429 lung cancer cell line as described above. […] When the tumors reached a volume of 200 to 400 mm^3, the tumors were staged to ensure uniformity of the tumor mass among various treatment groups. The HCC2429 lung model was dosed intraveneously Q4dx4 with PBS vehicle, humanized anti-Notch ADCs and control huNeg-8.8 ADCs at the doses provided in Tables 12 and 13."}, "37622A1 NSCLC xenografts": {"test_system": "37622A1 NSCLC xenografts", "assay": "37622A1 NSCLC patient-derived xenografts with anti-Notch ADCs", "type": "in vivo, nude (Nu/Nu) female mice", "details": "3 mg/kg Q4dx4", "method": "as §1\nThe effects of anti-Notch ADCs were examined in immunodeficient mice on the in vivo growth of human tumor xenografts that were established from fragments of freshly resected 37622A1 NSCLC tumors obtained in accordance with appropriate consent procedures (Asterand). The 37622A1 NSCLC patient-derived xenografts were subcutaneously passaged in vivo as fragments from animal to animal in nude (Nu/Nu) female mice. When the tumors reached a volume of 150 to 300 mm^3, they were staged to ensure uniformity of the tumor size among various treatment groups. The 37622A1 NSCLC model was dosed intraveneously four times every four days (Q4dx4) with PBS vehicle, humanized anti-Notch ADCs, control huNeg-8.8 ADCs and cisplatin at the doses provided in Table 11."}}, "note": "Entries after “also recorded” stand apart in the source; their conditions may differ."}
{"molecule": "B1", "values": [{"measurement": "tumor volume (mm^3 +/− SEM)", "setting": "HCC2429 lung xenografts; 0.3 mg/kg Q4dx4, DAY 1", "result": "528 ± 50", "unit": "mm^3"}, {"measurement": "tumor volume (mm^3 +/− SEM)", "setting": "HCC2429 lung xenografts; 0.3 mg/kg Q4dx4, DAY 3", "result": "733 ± 78", "unit": "mm^3"}, {"measurement": "tumor volume (mm^3 +/− SEM)", "setting": "HCC2429 lung xenografts; 0.3 mg/kg Q4dx4, DAY 6", "result": "1112 ± 132", "unit": "mm^3"}, {"measurement": "tumor volume (mm^3 +/− SEM)", "setting": "HCC2429 lung xenografts; 0.3 mg/kg Q4dx4, DAY 8", "result": "1617 ± 172", "unit": "mm^3"}, {"measurement": "tumor volume (mm^3 +/− SEM)", "setting": "HCC2429 lung xenografts; 0.3 mg/kg Q4dx4, DAY 10", "result": "2027 ± 233", "unit": "mm^3"}, {"measurement": "tumor volume (mm^3 +/− SEM)", "setting": "HCC2429 lung xenografts; 0.3 mg/kg Q4dx4, DAY 13", "result": "2642 ± 297", "unit": "mm^3"}, {"measurement": "tumor volume (mm^3 +/− SEM)", "setting": "HCC2429 lung xenografts; 0.3 mg/kg Q4dx4, DAY −1", "result": "246 ± 30", "unit": "mm^3"}, {"measurement": "tumor volume (mm^3 +/− SEM)", "setting": "HCC2429 lung xenografts; 1 mg/kg Q4dx4, DAY 1", "result": "532 ± 36", "unit": "mm^3"}, {"measurement": "tumor volume (mm^3 +/− SEM)", "setting": "HCC2429 lung xenografts; 1 mg/kg Q4dx4, DAY 3", "result": "757 ± 68", "unit": "mm^3"}, {"measurement": "tumor volume (mm^3 +/− SEM)", "setting": "HCC2429 lung xenografts; 1 mg/kg Q4dx4, DAY 6", "result": "1095 ± 119", "unit": "mm^3"}, {"measurement": "tumor volume (mm^3 +/− SEM)", "setting": "HCC2429 lung xenografts; 1 mg/kg Q4dx4, DAY 8", "result": "1324 ± 173", "unit": "mm^3"}, {"measurement": "tumor volume (mm^3 +/− SEM)", "setting": "HCC2429 lung xenografts; 1 mg/kg Q4dx4, DAY 10", "result": "1606 ± 250", "unit": "mm^3"}, {"measurement": "tumor volume (mm^3 +/− SEM)", "setting": "HCC2429 lung xenografts; 1 mg/kg Q4dx4, DAY 13", "result": "1717 ± 223", "unit": "mm^3"}, {"measurement": "tumor volume (mm^3 +/− SEM)", "setting": "HCC2429 lung xenografts; 1 mg/kg Q4dx4, DAY 15", "result": "1865 ± 263", "unit": "mm^3"}, {"measurement": "tumor volume (mm^3 +/− SEM)", "setting": "HCC2429 lung xenografts; 1 mg/kg Q4dx4, DAY 17", "result": "2228 ± 333", "unit": "mm^3"}, {"measurement": "tumor volume (mm^3 +/− SEM)", "setting": "HCC2429 lung xenografts; 1 mg/kg Q4dx4, DAY −1", "result": "246 ± 26", "unit": "mm^3"}, {"measurement": "tumor volume (mm^3 +/− SEM)", "setting": "HCC2429 lung xenografts; 3 mg/kg Q4dx4, DAY 1", "result": "548 ± 52", "unit": "mm^3"}, {"measurement": "tumor volume (mm^3 +/− SEM)", "setting": "HCC2429 lung xenografts; 3 mg/kg Q4dx4, DAY 3", "result": "606 ± 78", "unit": "mm^3"}, {"measurement": "tumor volume (mm^3 +/− SEM)", "setting": "HCC2429 lung xenografts; 3 mg/kg Q4dx4, DAY 6", "result": "723 ± 101", "unit": "mm^3"}, {"measurement": "tumor volume (mm^3 +/− SEM)", "setting": "HCC2429 lung xenografts; 3 mg/kg Q4dx4, DAY 8", "result": "696 ± 100", "unit": "mm^3"}, {"measurement": "tumor volume (mm^3 +/− SEM)", "setting": "HCC2429 lung xenografts; 3 mg/kg Q4dx4, DAY 10", "result": "620 ± 90", "unit": "mm^3"}, {"measurement": "tumor volume (mm^3 +/− SEM)", "setting": "HCC2429 lung xenografts; 3 mg/kg Q4dx4, DAY 13", "result": "543 ± 92", "unit": "mm^3"}, {"measurement": "tumor volume (mm^3 +/− SEM)", "setting": "HCC2429 lung xenografts; 3 mg/kg Q4dx4, DAY 15", "result": "512 ± 111", "unit": "mm^3"}, {"measurement": "tumor volume (mm^3 +/− SEM)", "setting": "HCC2429 lung xenografts; 3 mg/kg Q4dx4, DAY 17", "result": "442 ± 114", "unit": "mm^3"}, {"measurement": "tumor volume (mm^3 +/− SEM)", "setting": "HCC2429 lung xenografts; 3 mg/kg Q4dx4, DAY 20", "result": "428 ± 144", "unit": "mm^3"}, {"measurement": "tumor volume (mm^3 +/− SEM)", "setting": "HCC2429 lung xenografts; 3 mg/kg Q4dx4, DAY 23", "result": "405 ± 149", "unit": "mm^3"}, {"measurement": "tumor volume (mm^3 +/− SEM)", "setting": "HCC2429 lung xenografts; 3 mg/kg Q4dx4, DAY 27", "result": "422 ± 164", "unit": "mm^3"}, {"measurement": "tumor volume (mm^3 +/− SEM)", "setting": "HCC2429 lung xenografts; 3 mg/kg Q4dx4, DAY 30", "result": "394 ± 182", "unit": "mm^3"}, {"measurement": "tumor volume (mm^3 +/− SEM)", "setting": "HCC2429 lung xenografts; 3 mg/kg Q4dx4, DAY 34", "result": "505 ± 236", "unit": "mm^3"}, {"measurement": "tumor volume (mm^3 +/− SEM)", "setting": "HCC2429 lung xenografts; 3 mg/kg Q4dx4, DAY 37", "result": "606 ± 283", "unit": "mm^3"}, {"measurement": "tumor volume (mm^3 +/− SEM)", "setting": "HCC2429 lung xenografts; 3 mg/kg Q4dx4, DAY 41", "result": "750 ± 361", "unit": "mm^3"}, {"measurement": "tumor volume (mm^3 +/− SEM)", "setting": "HCC2429 lung xenografts; 3 mg/kg Q4dx4, DAY 45", "result": "872 ± 415", "unit": "mm^3"}, {"measurement": "tumor volume (mm^3 +/− SEM)", "setting": "HCC2429 lung xenografts; 3 mg/kg Q4dx4, DAY 49", "result": "558 ± 303", "unit": "mm^3"}, {"measurement": "tumor volume (mm^3 +/− SEM)", "setting": "HCC2429 lung xenografts; 3 mg/kg Q4dx4, DAY 52", "result": "571 ± 310", "unit": "mm^3"}, {"measurement": "tumor volume (mm^3 +/− SEM)", "setting": "HCC2429 lung xenografts; 3 mg/kg Q4dx4, DAY 56", "result": "704 ± 399", "unit": "mm^3"}, {"measurement": "tumor volume (mm^3 +/− SEM)", "setting": "HCC2429 lung xenografts; 3 mg/kg Q4dx4, DAY −1", "result": "245 ± 23", "unit": "mm^3"}, {"measurement": "effect on growth of HCC2429 lung xenografts (in words)", "setting": "HCC2429 lung xenografts; humanized ADCs, Q4dx4, doses of Tables 12 and 13", "result": "inhibited growth of HCC2429 lung xenografts in a dose-dependent manner; also recorded: a 3 mg/kg dose of hu28-vc0101 was more potent than a 10 mg/kg dose of hu28-vc6780"}, {"measurement": "tumor volume (mm^3 ± SEM)", "setting": "37622A1 NSCLC xenografts; DAY 4", "result": "202 ± 16", "unit": "mm^3"}, {"measurement": "tumor volume (mm^3 ± SEM)", "setting": "37622A1 NSCLC xenografts; DAY 7", "result": "202 ± 15", "unit": "mm^3"}, {"measurement": "tumor volume (mm^3 ± SEM)", "setting": "37622A1 NSCLC xenografts; DAY 11", "result": "130 ± 11", "unit": "mm^3"}, {"measurement": "tumor volume (mm^3 ± SEM)", "setting": "37622A1 NSCLC xenografts; DAY 14", "result": "119 ± 11", "unit": "mm^3"}, {"measurement": "tumor volume (mm^3 ± SEM)", "setting": "37622A1 NSCLC xenografts; DAY 18", "result": "71 ± 6", "unit": "mm^3"}, {"measurement": "tumor volume (mm^3 ± SEM)", "setting": "37622A1 NSCLC xenografts; DAY 21", "result": "55 ± 6", "unit": "mm^3"}, {"measurement": "tumor volume (mm^3 ± SEM)", "setting": "37622A1 NSCLC xenografts; DAY 25", "result": "49 ± 6", "unit": "mm^3"}, {"measurement": "tumor volume (mm^3 ± SEM)", "setting": "37622A1 NSCLC xenografts; DAY 28", "result": "41 ± 7", "unit": "mm^3"}, {"measurement": "tumor volume (mm^3 ± SEM)", "setting": "37622A1 NSCLC xenografts; DAY 32", "result": "42 ± 13", "unit": "mm^3"}, {"measurement": "tumor volume (mm^3 ± SEM)", "setting": "37622A1 NSCLC xenografts; DAY 35", "result": "42 ± 11", "unit": "mm^3"}, {"measurement": "tumor volume (mm^3 ± SEM)", "setting": "37622A1 NSCLC xenografts; DAY 39", "result": "62 ± 26", "unit": "mm^3"}, {"measurement": "tumor volume (mm^3 ± SEM)", "setting": "37622A1 NSCLC xenografts; DAY 42", "result": "75 ± 34", "unit": "mm^3"}, {"measurement": "tumor volume (mm^3 ± SEM)", "setting": "37622A1 NSCLC xenografts; DAY 46", "result": "92 ± 44", "unit": "mm^3"}, {"measurement": "tumor volume (mm^3 ± SEM)", "setting": "37622A1 NSCLC xenografts; DAY 49", "result": "120 ± 63", "unit": "mm^3"}, {"measurement": "tumor volume (mm^3 ± SEM)", "setting": "37622A1 NSCLC xenografts; DAY 53", "result": "144 ± 67", "unit": "mm^3"}, {"measurement": "tumor volume (mm^3 ± SEM)", "setting": "37622A1 NSCLC xenografts; DAY 56", "result": "126 ± 51", "unit": "mm^3"}, {"measurement": "tumor volume (mm^3 ± SEM)", "setting": "37622A1 NSCLC xenografts; DAY 60", "result": "180 ± 85", "unit": "mm^3"}, {"measurement": "tumor volume (mm^3 ± SEM)", "setting": "37622A1 NSCLC xenografts; DAY 63", "result": "223 ± 111", "unit": "mm^3"}, {"measurement": "tumor volume (mm^3 ± SEM)", "setting": "37622A1 NSCLC xenografts; DAY 67", "result": "296 ± 152", "unit": "mm^3"}, {"measurement": "tumor volume (mm^3 ± SEM)", "setting": "37622A1 NSCLC xenografts; DAY 70", "result": "312 ± 162", "unit": "mm^3"}]}
